Source: the supplement of paper PMC8285479
Where a name gives a salt, the structure may show the parent alone. ± gives the standard deviation of the averaged measurements. Over roughly 1,900 compounds, “normalised cell viability (NPI; 0 = phenylarsine oxide control, 1 = DMSO control)” has its median near 1; the lowest 2% begin near 0.039. Some of the results follow.

Test system: NCI-H1944
Experiment: normalised cell viability (NPI; 0 = phenylarsine oxide control, 1 = DMSO control) (fraction of DMSO control); NCI-H1944 is a non-small cell lung cancer line; higher = more viable cells (less compound toxicity)
Settings: 6 days
[1] = glucocorticoid arm: hydrocortisone 2.75 uM co-treatment, compound 1 µM
[2] = glucocorticoid arm: hydrocortisone 2.75 uM co-treatment, compound 5 µM
[3] = glucocorticoid arm: hydrocortisone 2.75 uM pre-treated 2 days and continued, compound 1 µM
[4] = glucocorticoid arm: hydrocortisone 2.75 uM pre-treated 2 days and continued, compound 5 µM
[5] = glucocorticoid arm: vehicle, compound 1 µM
[6] = glucocorticoid arm: vehicle, compound 5 µM
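Also: CTB read-out in 384-well plates, mean of triplicate wells, normalised per plate against 1 µM phenylarsine oxide and 0.1% DMSO, compounds added 24 h after seeding.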

Row | SMILES | normalised cell viability [1] | normalised cell viability [2] | normalised cell viability [3] | normalised cell viability [4] | normalised cell viability [5] | normalised cell viability [6]
1 | COc1ccccc1Oc1c(NS(=O)(=O)c2ccc(C(C)(C)C)cc2)nc(-c2ncccn2)nc1OCCO [Bosentan Hydrate] | 1.005 ± 0.0087 | 0.988 ± 0.022 | 0.984 ± 0.038 | 0.998 ± 0.011 | 0.983 ± 0.014 | 0.996 ± 0.014
2 | COc1ccccc1Oc1c(NS(=O)(=O)c2ccc(C(C)(C)C)cc2)nc(-c2ncccn2)nc1OCCO [Bosentan] | 1.001 ± 0.0085 | 1.03 ± 0.01 | 0.989 ± 0.046 | 1.04 ± 0.015 | 1.003 ± 0.0058 | 0.9967 ± 0.0011
3 | CN(C)CCC=C1c2ccccc2COc2ccccc21 [Doxepin hydrochloride] | 1.001 ± 0.0086 | 0.962 ± 0.025 | 1.006 ± 0.0075 | 0.999 ± 0.011 | 0.991 ± 0.0036 | 0.989 ± 0.009
4 | CC(C)[N+](C)(CCOC(=O)C1c2ccccc2Oc2ccccc21)C(C)C [Propantheline bromide] | 1 ± 0.0084 | 1.005 ± 0.0087 | 0.874 ± 0.22 | 0.987 ± 0.011 | 0.9883 ± 0.0068 | 0.979 ± 0.011
5 | CN1CCC[C@@H]1Cc1c[nH]c2ccc(CCS(=O)(=O)c3ccccc3)cc12 [Eletriptan HBr] | 1.013 ± 0.0058 | 1.03 ± 0.015 | 1.01 ± 0.01 | 1.02 ± 0.021 | 1.002 ± 0.0067 | 1.002 ± 0.0072
6 | CO[C@H](C(=O)[C@@H](O)[C@@H](C)O)[C@@H]1Cc2cc3cc(O[C@H]4C[C@@H](O[C@H]5C[C@@H](O)[C@H](O)[C@@H](C)O5)[C@H](O)[C@@H](C)O4)c(C)c(O)c3c(O)c2C(=O)[C@H]1O[C@H]1C[C@@H](O[C@H]2C[C@@H](O[C@H]3C[C@](C)(O)[C@H](O)[C@@H](C)O3)[C@@H](O)[C@@H](C)O2)[C@H](O)[C@@H](C)O1 [Plicamycin] | 0.0675 ± 0.0023 | 0.0276 ± 0.0011 | 0.102 ± 0.0097 | 0.0631 ± 0.0043 | 0.0202 ± 0.0011 | 0.011 ± 0.0021
7 | CCN(c1nc(N)c(C(=O)NC(=N)N)nc1Cl)C(C)C [5-(N-Ethyl-N-isopropyl)amiloride] | 1 ± 0.016 | 1.01 ± 0.012 | 0.989 ± 0.022 | 0.9925 ± 0.0092 | 1 ± 0.014 | 1.05 ± 0.046
8 | O=C(O)Cc1c[nH]c2ccc(O)cc12 [5-Hydroxyindolacetic acid] | 0.9993 ± 0.0011 | 0.999 ± 0.011 | 1.02 ± 0.041 | 0.99 ± 0.0036 | 1.01 ± 0.01 | 1.013 ± 0.0058
9 | Cn1c(=O)c2[nH]c(-c3ccccc3)nc2n(C)c1=O [1,3-Dimethyl-8-phenylxanthine] | 1.02 | 1.05 ± 0.036 | 1.01 ± 0.014 | 0.962 ± 0.12 | 1.007 ± 0.0058 | 1.02 ± 0.011
10 | C#Cc1cccc(Nc2ncnc3cc(OCCOC)c(OCCOC)cc23)c1 [Erlotinib HCl] | 0.927 ± 0.035 | 0.784 ± 0.07 | 0.905 ± 0.016 | 0.801 ± 0.013 | 0.926 ± 0.015 | 0.741 ± 0.035
11 | C#Cc1cccc(Nc2ncnc3cc(OCCOC)c(OCCOC)cc23)c1 | 1.001 ± 0.0079 | 0.961 ± 0.02 | 1.004 ± 0.01 | 0.958 ± 0.033 | 0.979 ± 0.016 | 0.936 ± 0.015
12 | COc1ccc(Cn2ccc3ccc(C(=O)NO)cc32)cc1 | 0.959 ± 0.041 | 1.01 ± 0.029 | 0.923 ± 0.12 | 1.04 ± 0.04 | 0.9977 ± 0.004 | 1.002 ± 0.0076
13 | NC(=O)c1cnc(N[C@@H]2CCCC[C@@H]2N)nc1Nc1cccc(-n2nccn2)c1 | 0.907 ± 0.012 | 0.589 ± 0.023 | 0.894 ± 0.0098 | 0.716 ± 0.098 | 0.923 ± 0.024 | 0.789 ± 0.043
14 | CN[C@H](CC(=O)O)C(=O)O [N-Methyl-D-aspartic acid] | 0.9943 ± 0.0057 | 0.991 ± 0.025 | 1 ± 0.019 | 1.02 ± 0.054 | 0.9787 ± 0.0067 | 0.989 ± 0.018
15 | CN(N=O)C(=O)N[C@@H]1[C@@H](O)[C@H](O)[C@@H](CO)O[C@@H]1O [Streptozocin] | 1 ± 0.014 | 1.03 ± 0.015 | 1.001 ± 0.0081 | 1.04 ± 0.01 | 0.9943 ± 0.0051 | 1
16 | Cc1ccc(-c2nn(C(C)(C)C)c3ncnc(N)c23)cc1 | 0.818 ± 0.029 | 0.87 ± 0.037 | 0.795 ± 0.042 | 0.901 ± 0.059 | 0.96 ± 0.018 | 0.996 ± 0.013

Row | SMILES | normalised cell viability [1] | normalised cell viability [2] | normalised cell viability [3] | normalised cell viability [4] | normalised cell viability [5] | normalised cell viability [6]
17 | Cc1c(-c2ccccc2)oc2c(C(=O)OCCN3CCCCC3)cccc2c1=O [Flavoxate HCl] | 1.023 ± 0.0058 | 1.02 ± 0.027 | 1.03 | 1.03 ± 0.01 | 0.9983 ± 0.0015 | 0.9933 ± 0.0021
18 | OC[C@H]1NC[C@H](O)[C@@H](O)[C@@H]1O [1-Deoxynojirimycin hydrochloride] | 1.01 ± 0.011 | 0.984 ± 0.025 | 0.995 ± 0.015 | 0.969 ± 0.0066 | 1.003 ± 0.0058 | 0.991 ± 0.013
19 | NC(=O)c1cccc(-c2cc(Nc3ccc(OC(F)(F)F)cc3)ncn2)c1 | 1.01 ± 0.017 | 0.982 ± 0.012 | 1.01 ± 0.016 | 0.9723 ± 0.0059 | 0.9973 ± 0.0015 | 0.997 ± 0.015
20 | c1cnc(N2CCN(Cc3ccc4c(c3)OCO4)CC2)nc1 [Piribedil maleate] | 1.001 ± 0.0078 | 0.969 ± 0.013 | 1 ± 0.016 | 0.963 ± 0.01 | 0.985 ± 0.01 | 0.9903 ± 0.0076
21 | C[C@](N)(Cc1ccc(O)c(O)c1)C(=O)O [L-alpha-Methyl DOPA] | 1.002 ± 0.0076 | 0.975 ± 0.032 | 1.006 ± 0.0063 | 1.03 ± 0.086 | 0.9957 ± 0.0045 | 0.997 ± 0.012
22 | CCOC(=O)c1cnc2ccc(-c3cncc(NS(=O)(=O)c4ccccc4)c3)cn12 | 0.9357 ± 0.0074 | 0.934 ± 0.038 | 0.928 ± 0.036 | 0.945 ± 0.02 | 0.9947 ± 0.005 | 0.987 ± 0.012
23 | O=C(O)CNC(=O)C(CS)Cc1ccccc1 (racemic) [DL-Thiorphan] | 1.007 ± 0.0058 | 1.02 ± 0.011 | 0.894 ± 0.2 | 1.017 ± 0.0058 | 0.998 ± 0.002 | 0.996 ± 0.0069
24 | COc1cc2c(cc1OC)CC(=O)N(CCCN(C)C[C@H]1Cc3cc(OC)c(OC)cc31)CC2 [Ivabradine HCl] | 1.03 ± 0.015 | 1.01 ± 0.024 | 1.01 ± 0.011 | 0.999 ± 0.02 | 0.9993 ± 0.0011 | 0.998 ± 0.0035
25 | O=C(CCCN1C(=O)c2cccc3cccc(c23)C1=O)NO [Nullscript] | 0.981 ± 0.011 | 0.961 ± 0.029 | 1 ± 0.012 | 0.987 ± 0.018 | 1 ± 0.0082 | 1.01 ± 0.014
26 | Cc1c(C(=O)NN2CCCCC2)nn(-c2ccc(Cl)cc2Cl)c1-c1ccc(Cl)cc1 [Rimonabant] | 1.013 ± 0.0058 | 1.03 ± 0.015 | 1.02 ± 0.017 | 1.02 ± 0.022 | 1.003 ± 0.0058 | 0.9933 ± 0.0035
27 | O=C(O)C(=O)O.[NH-][C@@H]1CCCC[C@H]1[NH-].[Pt+2] [Oxaliplatin] | 1.023 ± 0.0058 | 0.863 ± 0.0095 | 1.013 ± 0.0058 | 0.9563 ± 0.0038 | 1.003 ± 0.0058 | 0.585 ± 0.04
28 | Cc1ccc(NC(=O)c2ccc(CN3CCN(C)CC3)cc2)cc1Nc1nccc(-c2cccnc2)n1 [Imatinib (Gleevec)] | 1.05 ± 0.017 | 1.14 ± 0.015 | 1.037 ± 0.0058 | 1.1 ± 0.01 | 1.01 ± 0.015 | 1.033 ± 0.0058
29 | Cc1ccc(NC(=O)c2ccc(CN3CCN(C)CC3)cc2)cc1Nc1nccc(-c2cccnc2)n1 | 1.043 ± 0.0058 | 1.1 ± 0.032 | 1.04 ± 0.011 | 1.05 ± 0.01 | 0.9957 ± 0.004 | 1 ± 0.014
30 | Cc1ccc(NC(=O)c2ccc(CN3CCN(C)CC3)cc2)cc1Nc1nccc(-c2cccnc2)n1 [Imatinib Mesylate] | 1.05 ± 0.015 | 1.14 ± 0.021 | 1.05 ± 0.015 | 1.1 ± 0.032 | 1.01 ± 0.01 | 1.03 ± 0.011
31 | Oc1cc2c(c(Cl)c1O)CCNCC2c1ccccc1 (racemic) [(±)-6-Chloro-PB hydrobromide] | 1.007 ± 0.0058 | 1.04 ± 0.023 | 1.03 ± 0.015 | 1.05 ± 0.01 | 1.02 ± 0.01 | 1.02
